# Source: patent publication US20160033523A1 (NOVOZYMES BIOPHARMA DK A S, published 2016)
# T1: Soluble pig FcRn with pig beta2-microglobulin, HIS-tagged (Example 4) (pig, UniProt Q07717 21-118)
# T1 construct: also called pFcRn; not shown: HIS-tag on the C-terminal of the beta-chain
# T1 sequence: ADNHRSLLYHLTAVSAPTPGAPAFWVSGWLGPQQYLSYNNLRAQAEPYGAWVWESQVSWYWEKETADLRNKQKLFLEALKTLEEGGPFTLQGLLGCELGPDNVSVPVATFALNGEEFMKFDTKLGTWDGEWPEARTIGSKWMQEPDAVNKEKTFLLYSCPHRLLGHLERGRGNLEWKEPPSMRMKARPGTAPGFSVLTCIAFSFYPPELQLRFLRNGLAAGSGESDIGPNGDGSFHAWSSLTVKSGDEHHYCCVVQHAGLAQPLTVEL
# T1 sequence (b2m): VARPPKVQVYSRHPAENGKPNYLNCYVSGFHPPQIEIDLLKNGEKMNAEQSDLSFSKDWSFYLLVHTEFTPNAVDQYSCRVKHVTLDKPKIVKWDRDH
# T2: Soluble guinea pig FcRn with guinea pig beta2-microglobulin, HIS-tagged (guinea pig, UniProt P01886 1-99)
# T2 construct: Synthesized by GeneArt, expressed in HEK cells; also called gpFcRn; gpFcRN; not shown: HIS-tag on the C-terminal of the beta-chain
# T2 sequence: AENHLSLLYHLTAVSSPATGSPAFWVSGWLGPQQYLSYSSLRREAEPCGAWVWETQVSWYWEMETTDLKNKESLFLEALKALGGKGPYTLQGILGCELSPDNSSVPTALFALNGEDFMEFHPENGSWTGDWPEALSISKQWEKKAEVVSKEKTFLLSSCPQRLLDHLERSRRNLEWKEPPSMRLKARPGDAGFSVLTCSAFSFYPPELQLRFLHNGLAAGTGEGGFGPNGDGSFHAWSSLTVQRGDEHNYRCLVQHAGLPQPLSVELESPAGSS
# T2 sequence (b2m): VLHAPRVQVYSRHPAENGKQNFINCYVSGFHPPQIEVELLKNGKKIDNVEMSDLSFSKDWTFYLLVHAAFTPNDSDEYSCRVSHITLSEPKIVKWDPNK
# B1: N-terminally c-myc tagged albumin variant E492G+K573P+K574H+Q580K (ligand)
# chain: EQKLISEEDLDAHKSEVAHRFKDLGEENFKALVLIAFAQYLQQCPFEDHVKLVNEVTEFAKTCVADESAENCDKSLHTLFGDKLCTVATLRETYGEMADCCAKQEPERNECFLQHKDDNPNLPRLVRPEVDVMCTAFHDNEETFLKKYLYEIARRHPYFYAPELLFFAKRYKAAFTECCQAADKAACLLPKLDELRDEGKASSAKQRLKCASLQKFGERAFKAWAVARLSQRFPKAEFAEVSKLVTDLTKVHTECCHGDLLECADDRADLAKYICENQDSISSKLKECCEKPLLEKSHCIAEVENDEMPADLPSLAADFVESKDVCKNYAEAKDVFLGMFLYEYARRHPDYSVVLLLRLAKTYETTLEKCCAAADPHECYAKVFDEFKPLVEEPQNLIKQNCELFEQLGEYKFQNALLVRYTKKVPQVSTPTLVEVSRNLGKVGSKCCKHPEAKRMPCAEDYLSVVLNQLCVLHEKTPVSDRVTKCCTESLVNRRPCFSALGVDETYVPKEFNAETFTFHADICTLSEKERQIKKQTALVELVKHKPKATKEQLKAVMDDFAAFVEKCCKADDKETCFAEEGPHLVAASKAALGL
# notes: Substitutions numbered on mature HSA, not on the tagged chain; also called c-myc-E492G + K573P + K574H + Q580K
# B2: Wild type mouse serum albumin (ligand)
# chain: not shown
# notes: also called MSA; MSA Wt
# B3: HSA E492G+K573P+K574H+Q580K (ligand)
# chain: DAHKSEVAHRFKDLGEENFKALVLIAFAQYLQQCPFEDHVKLVNEVTEFAKTCVADESAENCDKSLHTLFGDKLCTVATLRETYGEMADCCAKQEPERNECFLQHKDDNPNLPRLVRPEVDVMCTAFHDNEETFLKKYLYEIARRHPYFYAPELLFFAKRYKAAFTECCQAADKAACLLPKLDELR[skipping about 200 residues]NLIKQNCELFEQLGEYKFQNALLVRYTKKVPQVSTPTLVEVSRNLGKVGSKCCKHPEAKRMPCAEDYLSVVLNQLCVLHEKTPVSDRVTKCCTESLVNRRPCFSALGVDETYVPKEFNAETFTFHADICTLSEKERQIKKQTALVELVKHKPKATKEQLKAVMDDFAAFVEKCCKADDKETCFAEEGPHLVAASKAALGL
# notes: Variant of mature HSA
# Assays:
# [1] = molecular target: T3, Soluble cynomolgus macaque FcRn with cynomolgus beta2-microglobulin, HIS-tagged (cynomolgus macaque, UniProt Q8SPV9 24-297; Q6T672 21-119); experiment: SPR, pH 5.5; against CSA on cyno FcRn by the values (column head says PSA)
# T3 construct: Synthesized by GeneArt, expressed in HEK cells; also called CynoFcRn; Cyno FcRn; not shown: HIS-tag on the C-terminal of the beta-chain
# Description: (§1) SPR experiments were carried out using a Biacore 3000 instrument (GE Healthcare). Flow cells of CM5 sensor chips were coupled with soluble FcRn from one of the following species, human (shFcRn), rat (srFcRn), mouse (smFcRn), rhesus monkey (srmFcRn), dog (dFcRn) or pig (pFcRn) (˜900-2500 resonance units (RU)) using GE Healthcare amine coupling chemistry as per the manufacturer's instructions. The coupling was performed by injecting 2 or 10 μg/ml FcRn in 10 mM sodium acetate pH 5.0 (GE healthcare). Phosphate buffer (67 mM phosphate buffer, 0.15 M NaCl, 0.005% Tween 20) at pH 6.0) was used as running buffer and dilution buffer. Regeneration of the surfaces were done using injections of HBS-EP buffer (0.01 M HEPES, 0.15 M NaCl, 3 mM EDTA, 0.005% surfactant P20) at pH 7.4 (GE Healthcare). For determination of binding kinetics, serial dilutions of albumin (10-0.3 μM) were injected over immobilized receptors at a constant flow rate (50 μl/min) at 25° C. In all experiments, data were zero adjusted and the reference cell subtracted.
# (§2) The SPR assay was conducted with the following variations to the assay described in the Materials and Method section:
# (§3) The soluble FcRn receptors were synthesized by GeneArt and expressed in HEK cells. […]
# [2] = molecular target: T1, Soluble pig FcRn with pig …; experiment: SPR, pH 5.5; affinity against PSA on pig FcRn
# Description: as §1, §2, §3
# [3] = molecular target: T2, Soluble guinea pig FcRn with guinea pig …; experiment: SPR, albumin over immobilized His-FcRn, pH 5.5, 1:1 Langmuir
# Description: as §1, §2
# (§4) The soluble FcRn receptors were synthesized by GeneArt and expressed in HEK cells. The soluble FcRn contained a HIS-tag on the C-terminal of the Beta-chain instead of a GST on the heavy chain and the beta-chain used was the native beta-chain of the animal (see Materials and Method section for the corresponding sequences). The soluble FcRn was purified by a HIS trap column followed by an additional purification using an IgG column. The soluble FcRn receptor was diluted to 20 μg/mL. The phosphate buffer used as running buffer in the SPR assay was at pH 5.5 instead of pH 6.0. […] 1:1 Langmuir or Steady state model was used.
# [4] = molecular target: T3, Soluble cynomolgus macaque FcRn with …; experiment: as above
# Description: as §1, §2, §4
# [5] = molecular target: T1, Soluble pig FcRn with pig …; experiment: as above
# Description: as §1, §2, §4
# [6] = molecular target: T4, Soluble mouse FcRn, GST-tagged, with human beta2-microglobulin (mouse; Schistosoma japonicum; human, UniProt P08515 = GST); experiment: SPR, albumin over immobilized GST-FcRn, pH 6.0, steady state
# T4 construct: also called smFcRn
# Description: as §1
# [7] = molecular target: T5, Soluble dog FcRn, GST-tagged, with human beta2-microglobulin (dog; Schistosoma japonicum; human, UniProt P08515 = GST); experiment: SPR, albumin over immobilized GST-FcRn, pH 6.0, 1:1 model
# T5 construct: also called dFcRn
# Description: as §1
# [8] = molecular target: T6, Soluble pig FcRn, GST-tagged, with human beta2-microglobulin (Example 2) (pig; Schistosoma japonicum; human, UniProt P08515 = GST); experiment: as above
# T6 construct: also called pFcRn; spFcRn
# Description: as §1
# [9] = molecular target: T7, Soluble rhesus monkey FcRn, GST-tagged, with human beta2-microglobulin (rhesus monkey; Schistosoma japonicum; …, UniProt P08515 = GST); experiment: as above
# T7 construct: also called srmFcRn; soluble rhesus macaque FcRn
# Description: as §1
# [10] = molecular target: T4, Soluble mouse FcRn, GST-tagged, with …; experiment: as above
# Description: as §1
Binder,Fold > PSA [1],Fold > PSA [2],Kd [3],koff [3],kon [3],Kd [4],koff [4],kon [4],Kd [5],koff [5],kon [5],other results
B1,35 fold,525 fold,13000 nM,0.0768 s⁻¹,5700 M⁻¹ s⁻¹,1000 nM,0.0059 s⁻¹,4900 M⁻¹ s⁻¹,400 nM,0.0136 s⁻¹,34500 M⁻¹ s⁻¹,–
B2,–,–,–,–,–,–,–,–,–,–,–,Kd [6]: 1000 nM; Kd [7]: 1750 nM; koff [7]: 0.013 s⁻¹; kon [7]: 7400 M⁻¹ s⁻¹; Kd [8]: 2200 nM; koff [8]: 0.022 s⁻¹; kon [8]: 10000 M⁻¹ s⁻¹; Kd [9]: 1300 nM; koff [9]: 0.0066 s⁻¹; kon [9]: 4900 M⁻¹ s⁻¹; Kd [10]: 800 nM; koff [10]: 0.0122 s⁻¹; kon [10]: 16100 M⁻¹ s⁻¹
B3,35 fold,525 fold,10900 nM,0.0628 s⁻¹,5800 M⁻¹ s⁻¹,1000 nM,0.0055 s⁻¹,4600 M⁻¹ s⁻¹,400 nM,0.0121 s⁻¹,27800 M⁻¹ s⁻¹,–
